Measured values taken from the supplement of paper PMC3334620.
Over roughly 33,000 sequences, “E-score (-0.5 to 0.5)” has its median near -0.017; the highest 2% begin near 0.3. The list shows a part of the results.

target: T1, Sut1 (UniProt P53032); test: PBM E-score (8-mer binding enrichment) (E-score (-0.5 to 0.5)); higher = stronger / more preferred TF binding; most listed sequences are background and not binding sites; settings: protein concentration: 200 nM; construct: GST-full length
T1 sequence: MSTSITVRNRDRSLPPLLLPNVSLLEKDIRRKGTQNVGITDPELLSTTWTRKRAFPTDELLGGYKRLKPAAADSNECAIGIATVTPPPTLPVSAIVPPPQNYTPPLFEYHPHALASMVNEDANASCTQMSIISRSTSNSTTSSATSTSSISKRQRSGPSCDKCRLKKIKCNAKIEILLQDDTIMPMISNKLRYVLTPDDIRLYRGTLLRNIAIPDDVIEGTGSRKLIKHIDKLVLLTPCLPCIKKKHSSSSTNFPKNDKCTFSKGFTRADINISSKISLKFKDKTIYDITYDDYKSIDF
Method: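 Universal 'all 10-mer' protein binding microarrays (Agilent AMADID 015681) probed with GST-tagged S. cerevisiae TFs (full-length or DBD) made by in vitro transcription/translation (PURExpress), about 100-200 nM. Bound TF was detected with fluorescent anti-GST. Each ungapped 8-mer (which stands for itself and its reverse complement) is scored by the PBM enrichment score (E-score), a modified Wilcoxon-Mann-Whitney statistic from -0.5 to +0.5, computed with the Universal PBM Analysis Suite. Scale: above 0.35 generally sequence-specific binding.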

Row | Sequence | PBM E-score
1 | CAAGCATG | 0.0043
2 | AATCGGGC | -0.0945
3 | CAATTCAA | 0.0614
4 | ACCTTAAT | -0.0174
5 | ACACGAGC | -0.169
6 | ATGACTCG | -0.0426
7 | GGATTGCC | -0.146
8 | ATTTAAAT | 0.232
9 | AACTTAGC | -0.0324
10 | ACAATCCA | 0.255
11 | AGATAAAG | 0.0894
12 | CAGCTGCC | -0.0921
13 | AGTGTTTA | 0.162
14 | AGCCAAGA | -0.0666
15 | ATTTCGGC | 0.0959
16 | CCCTTTGC | -0.108
17 | ACTTTGCC | 0.0133
18 | AGTGACGG | 0.103
19 | GTATATAA | 0.277
20 | ATTGGACG | -0.0333
21 | AGAGAAAA | 0.0987
22 | TCCGATCA | 0.286
23 | GTCAGTGA | -0.0931
24 | CACTACGG | 0.103
25 | ACGACGGC | -0.319

Row | Sequence | PBM E-score
26 | ACATATAT | 0.266
27 | ACCCCTGA | -0.255
28 | AACCCCGG | 0.438
29 | ATGGATTC | -0.121
30 | CCACATCA | 0.00393
31 | ACTCTGTG | -0.0954
32 | AAAAAAGT | 0.21
33 | CTGTAACA | -0.226
34 | AATTGAGT | 0.189
35 | CGGTGCCC | -0.158
36 | AAGGTCAT | -0.0897
37 | ACGTAATC | 0.0136
38 | CTTCCGTA | 0.181
39 | CAATGTCA | 0.103
40 | ACTATCGG | 0.149
41 | TCACGGCA | 0.108
42 | CCGAGGCG | -0.172
43 | TGGACTAA | -0.104
44 | AGCAAAAA | 0.279
45 | ACACACGT | -0.0258
46 | CTTAGTTA | 0.0937
47 | ACAGTCGG | 0.0941
48 | ATCCAAGG | -0.0637
49 | GGATGACA | 0.0191
50 | AGTCCTAA | -0.00696

Row | Sequence | PBM E-score
51 | TAACACGA | 0.0134
52 | GGCAAGCA | -0.11
53 | ACTGTGAC | -0.142
54 | AACCATAG | -0.00688
55 | CTGCTCAA | -0.101
56 | CATTCCAC | -0.0352
57 | GGCTTAGA | -0.242
58 | AACTCCAG | 0.137
59 | CTGGGACC | -0.3
60 | CCGCGATC | 0.00816
61 | GCGGAAGC | 0.069
62 | AATAAGGA | 0.0856
63 | ATTTAAAG | 0.267
64 | ACTTCACT | 0.196
65 | AGTTGGCA | 0.119
66 | GTGATAGA | 0.043
67 | GCAATGAA | 0.0552
68 | ATACAGTA | 0.141
69 | CAGCCGCG | -0.132
70 | CCGGGCAG | -0.121
71 | TATTTCCA | 0.146
72 | AAGCGTTG | 0.0783
73 | AGGAGAGC | -0.345
74 | CTATAGCA | 0.0427
75 | CGGAGCCC | 0.183

Row | Sequence | PBM E-score
76 | AGAAGACA | 0.00462
77 | ACTTGACC | -0.0871
78 | ACCGTGAC | -0.126
79 | AAAAATGG | 0.175
80 | TCCATACA | 0.118
81 | CGTGGTAC | -0.123
82 | GACACGTA | -0.0615
83 | GGCTCACA | -0.13
84 | AGCGTCTC | -0.14
85 | AAGGACCG | 0.0453
86 | CATGTCGG | -0.0605
87 | CAGCGTAG | 0.0426
88 | CTACTTAA | 0.0855
89 | CATTCAAG | 0.0133
90 | GAGTATGC | 0.068
91 | CCTCCGTA | 0.0232
92 | AGTCCTAG | -0.0729
93 | CATCGAGC | -0.0361
94 | CAGTCGTC | -0.102
95 | GAATGGCC | 0.03
96 | CTCCGGTC | 0.418
97 | CCTCCTGA | -0.168
98 | GGACTTAC | 0.352
99 | ATGAGATA | 0.128
100 | CCGGTCCG | 0.182

Row | Sequence | PBM E-score
101 | TCCGAGGA | 0.34
102 | CCCGTCTC | -0.256
103 | TCAATCCA | -0.00469
104 | ATGGGTTG | -0.0255
105 | CTAAGCAG | -0.0865
106 | GCACCCAA | -0.114
107 | GTCATGTA | -0.0415
108 | GCGATCAA | -0.145
109 | AGCGTATC | -0.0874
110 | CGTAGGCC | -0.112
111 | GCCCTCGA | -0.284
112 | ACGAGCCT | -0.195
113 | CTACCCTC | -0.233
114 | ACCAGCAA | 0.085
115 | AGCTAGAC | -0.044
116 | GATTGGCA | -0.18
117 | AAGCATAA | 0.104
118 | GATGCTAA | 0.0485
119 | ACTCCGGC | 0.489
120 | ATCGTAGC | -0.0256
121 | GACAACTA | 0.147
122 | GAATGTTA | 0.234
123 | AGCGTCCG | -0.0943
124 | AGTGTGAA | 0.19
125 | AAAGAGAC | 0.15

Row | Sequence | PBM E-score
126 | ATGCATCG | 0.0435
127 | ACGGCGAC | -0.0258
128 | AATTTAGG | 0.199
129 | CGGATTTA | 0.236
130 | CCAGCAAC | 0.0963
131 | AGACATAC | -0.124
132 | AGAGGCAT | 0.03
133 | GACGCCCA | -0.229
134 | AAGGCGTG | -0.182
135 | GGCTTTGA | 0.0492
136 | CGACCCTC | -0.081
137 | AACTAAGG | 0.162
138 | CTAATAAA | 0.197
139 | GAGAAGCA | -0.0115
140 | AGGCGAAC | -0.145
141 | GAGAGGGA | -0.25
142 | ATCCCTAC | 0.0509
143 | CAATAGAC | 0.0854
144 | AGCTAACA | -0.0661
145 | AGGCCAAT | -0.0219
146 | CCGTTAGG | -0.0674
147 | ACATCCCA | -0.192
148 | TACGTAAA | 0.122
149 | GTCGACAC | -0.097
150 | CATCGTAC | -0.141

Row | Sequence | PBM E-score
151 | CGGGTCAA | 0.00658
152 | CACCTTAA | 0.00957
153 | GTGTTGGA | 0.0639
154 | TGGTCAAA | 0.0173
155 | CCAGCCCC | -0.104
156 | AATTATGG | 0.179
157 | TGTGAACA | 0.0484
158 | ACGGGACG | -0.088
159 | AATCAGGG | -0.288
160 | GTCAGCGA | -0.186
161 | ATGAATTG | 0.165
162 | GCACCCCA | -0.204
163 | ATATTCAG | 0.04
164 | ATGAGTCA | -0.0351
165 | CCCACCAG | -0.347
166 | AAATATGT | 0.317
167 | AAAATACT | 0.139
168 | AGGTCTAA | -0.0642
169 | ACATGCCC | -0.00981
170 | ACAATCGC | -0.0754
171 | CCCGTAGA | -0.245
172 | ACCACGGT | -0.276
